Experimental data from PMC12136788.
The other results are listed elsewhere or left out.

T1: UNK ZnF1-3 (human, UniProt Q9C0B0 31-174)
T1 sequence: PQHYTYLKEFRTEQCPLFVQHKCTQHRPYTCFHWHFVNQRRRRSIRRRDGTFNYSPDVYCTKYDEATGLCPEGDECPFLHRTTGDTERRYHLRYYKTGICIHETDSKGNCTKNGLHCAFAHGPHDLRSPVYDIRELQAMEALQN

B1: chr3:179287964:179287965:+_ENSG00000136518_ENST00000429709|hu_hu|hu_hu_hu_mus_True|48_108 (ssRNA)
RNA: GGGAGUUCUACAGUCCGACGAUCCUUUAGAGGUGAAAUGGCCUCCAUGUUCUCCCUGGGCACGCGGAGGGCAUUGGUGUCUAUGUAGUAGGUGGGACCGCCCUGCUUGCCUUUGUCACCAUCAAUCUCCAUCAUUGUACUUCCCAACAGAGGAUUGAGCAUCA
B2: 13335207_13337456_1872_CDS_ENSMUSG00000020576_ENSMUST00000042953|mouse|control|control (ssRNA)
RNA: GGGAGUUCUACAGUCCGACGAUCGCUGUCAAUGUCUAUGUCACCUGGUAAGGUAAAUCUGCCAUCAUCCACACCCUUUCCUAUGGCGACGAGAGCCUCCAGGUCUGUGCCUUUCAAGCCAUACUGCAGCAGUUCCUUGGCAGCCAACAGAGGAUUGAGCAUCA
B3: 41075646_41075766_6519_CDS_ENSG00000124486_ENST00000378308|human|control|control (ssRNA)
RNA: GGGAGUUCUACAGUCCGACGAUCAAUAAUCUGAUGAGGUCUGGUGGUGAUAGCAAGCUCUGAUAUAUAUCUUAUCAACUCAUCAUCUUGGUCUAUUGUGUCCAUUCGUUCAUAAAAAAGUAUAUAAGCAUUCCACCACCUUUUCAACAGAGGAUUGAGCAUCA
B4: chr19:7348912:7348913:+_ENSMUSG00000024968_ENSMUST00000066646|mus_mus|FALSE|FALSE (ssRNA)
RNA: GGGAGUUCUACAGUCCGACGAUCGCGGAGCAAUGUGGGAGCUGUGGGCAGAGGUGGCCUCAGCAGCGGGGGUGGCUGGGAAAGCGAGGUGGGCGGUGGAGGUGGGGGCGGUGCAGGGGGUACUGAUCGGGGUACUGAUGUUGACAACAGAGGAUUGAGCAUCA
B5: chr3:38534408:38534409:+_ENSG00000114739_ENST00000352511|hu_hu|FALSE|FALSE (ssRNA)
RNA: GGGAGUUCUACAGUCCGACGAUCUUCAAGCAGCAAAACCCCAACUUAGCAGAUCUAAUUUCAAACUUGACACUCAUUUCUAAAAUUACCACAGUAAAAAGGAACAAAGAUCCACUGCAAAUGAAUGAACUAUGAUACAAUGUUCAACAGAGGAUUGAGCAUCA
B6: chr4:76721835:76721836:+_ENSG00000138768_ENST00000264904|hu_mus|FALSE|FALSE (ssRNA)
RNA: GGGAGUUCUACAGUCCGACGAUCGUUUGGCUGGGGUUUCUGAGACGCUCUGGAAUAUAACUCAUGUUUGCUAAUAAAUCCUAGUUUCUCUAUGAAAUUCUCUUUGCCAAUCCUCUUCUCUAUUAGUUGCUUUAGUUUCUCUUUCAACAGAGGAUUGAGCAUCA
B7: 57394321_57396401_707_CDS_ENSMUSG00000032306_ENSMUST00000034856|mouse|control|control (ssRNA)
RNA: GGGAGUUCUACAGUCCGACGAUCCAGCUGCAGCAAGAGCUUCCCAUAAAUGUCCUCCAUAUUGUUUCCGUCAAAUACUUGCUGGGAGAUCCGUUUCACCAACAGGUUAAGCUGCUCCACCACCACCUUCUUCUCACUCUUCAUCAACAGAGGAUUGAGCAUCA
B8: chr17:45747064:45747065:+_ENSG00000108424_ENST00000290158|hu_hu|hu_hu_hu_mus_True|18_28 (ssRNA)
RNA: GGGAGUUCUACAGUCCGACGAUCGCCCACAGUCCACGCUGUUGUGUCUCGAACAACUACACUGGGGUCUUUCAUUAGUUCUAUUAGGGUGGGCAUAGCCUGUAUGACUAGUGGUUUGAGCUGACUGGGCUCUGGUCCUUCCAACAACAGAGGAUUGAGCAUCA
B9: chr14:66974463:66974464:+_ENSMUSG00000022044_ENSMUST00000074523|mus_hu|mus_mus_mus_hu_False|18_108 (ssRNA)
RNA: GGGAGUUCUACAGUCCGACGAUCUUGUAGGAUGAUUUAUUCAGGGGAUCGGCCAGGAAGCAGGAGCAGAACAAGGACACCAGCGGGAGCUCCUUCAUCUUCUCUUUGUAGGCAGCAAGAGUCAUGUUUCUGGGAUCUGGUGGCCAACAGAGGAUUGAGCAUCA
B10: chr2:73037555:73037556:-_ENSMUSG00000027108_ENSMUST00000028517|mus_mus|motif|central (ssRNA)
RNA: GGGAGUUCUACAGUCCGACGAUCAAAGGCAUUCCCCAAGCCCUGCCCAUUGUGAGCUCCUUUUACAAGGCCAGCAAUAUCCACGGCAUUUAGGAAAGCAGGAAUCUUGCUUGCUGGUUUAUGGUACUGGCAAAGAAAGUCGAACAACAGAGGAUUGAGCAUCA
B11: chr14:27472611:27472612:+_ENSMUSG00000021877_ENSMUST00000022429|perfect_dup|FALSE|FALSE (ssRNA)
RNA: GGGAGUUCUACAGUCCGACGAUCUUCCAGAAGCAUUUUCUGCAGCACAGCUGCUCCUUCCUGGAUUCUUUCACGAUCAUUGCUAUCUACCACAAAAAUGAGACCCUGGGUAUUCUGGAAGUAAUGCCUCCAGAGAGGCCUAAUCAACAGAGGAUUGAGCAUCA
B12: chr5:77717642:77717643:+_ENSG00000085365_ENST00000538629|hu_hu|FALSE|FALSE (ssRNA)
RNA: GGGAGUUCUACAGUCCGACGAUCAACCGCUCUUGCAGAAUCAACACAAAACCAAGCCAAGCAUCCGAAGAUAUUUAGAAACAGUGUUACUGCAUGGAACAUCCACAAGUAGUACAUAAGCUUUACUGUCUUUUGGAAUUCUACCAACAGAGGAUUGAGCAUCA
B13: chr6:41757443:41757444:+_ENSG00000214736_ENST00000398881|hu_mus|hu_hu_hu_mus_False|1_108 (ssRNA)
RNA: GGGAGUUCUACAGUCCGACGAUCGAACUGUCUGCUGGCAACAUCUCAGCCGACACUGGGGGAUGGGGGGGCAGUGGGGGGGGGUUCAGGCAAGGAGAGGGAGUCAACUUCAGCUGCCACUCAGGUAGGAUCUUGUGGGGCACACAACAGAGGAUUGAGCAUCA
B14: 72663996_72664116_663_5pUTR_ENSMUSG00000022883_ENSMUST00000023600|mouse|control|control (ssRNA)
RNA: GGGAGUUCUACAGUCCGACGAUCAGGCGAACAACAAAGAGCCUAAACCGAGGAGCAGUUGUGCGGUUUCCUGCCUCCACAGUCCUGCUGAGCCUCCCGGCGUGCGCCUCCACAGCGUGUGCCCUGGCGCCGCUGCGCGGCGAUCAACAGAGGAUUGAGCAUCA

target: T1, UNK ZnF1-3; assay: nsRBNS (natural sequence RNA bind-n-seq); RBNS binding buffer (assumed for nsRBNS): 25 mM Tris pH 7.5, 150 mM KCl, 3 mM MgCl2, 0.01% Triton X-100, 500 ug/ml BSA, 20 U/ml SUPERase-In, 4 C; UNK is unkempt and MSI1 is Musashi-1; names of the RNAs are library labels; protein concentration not given here; high values mean tight binding

| Binder | binding signal [enrichment R] |
| --- | --- |
| B1 | 0.804 |
| B2 | 1.15 |
| B3 | 0.762 |
| B4 | 1.49 |
| B5 | 1.53 |
| B6 | 0.486 |
| B7 | 0.974 |
| B8 | 0.717 |
| B9 | 2.44 |
| B10 | 1.19 |
| B11 | 0.885 |
| B12 | 1.09 |
| B13 | 1.55 |
| B14 | 0.662 |
